From the supplement of paper PMC10126150
Values marked as one replicate rest on one cluster of the flow cell; about a third of the high ones do not repeat.

System: ATP
Test: switch fluorescence ratio, 500 uM ATP over buffer (Cy3 cluster intensity, sum of 5 cycles each) (fold (ratio)); higher = stronger signal-on switching upon ATP binding; sequences stand for … in TCGTCGGCAGCGTCAGATGTGTATAAGAGACAGTTTTTTTTTTTTTTTTTTTTTTTTT…TC
Conditions: aptamer strand: ATP DNA aptamer (quencher-CACCTGGGGGAGTATTGCGGAGGAAGG + anchor), 100 nM annealed; ATP concentration: 500 uM; one replicate
In short: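 Values give the fluorescence ratio for each switch-domain sequence, averaged from per-cluster ratios of summed target-cycle to summed buffer-cycle Cy3 intensity. The Cy3-labelled switching-strand clusters sat on a modified Illumina MiSeq flow-cell, were annealed to 100 nM quencher-labelled ATP aptamer, and were imaged in selection buffer, then after 15 min with 500 uM ATP at 22 °C. Five cycles ran with NaOH stripping and re-annealing between them, and clusters outside 100-1000 RFU were excluded.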
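Further: ATP exposure 15 min at 22 °C before imaging.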

Row | Sequence | switch fluorescence ratio
1 | GCCTTTAGTA | 1.05
2 | ATGGACCTGG | 0.924
3 | GCTTTGTTCT | 1
4 | ATGGTTAGTT | 0.992
5 | GGGAATTCCT | 0.964
6 | AGGTTTTCTT | 0.972
7 | CGGGGTGGAA | 1
8 | GAGACTCAAC | 1.01
9 | CGTAATGCAT | 1.02
10 | GTCGTATTCA | 1.01
11 | GTGAATCTTC | 1
12 | CATGCTTTTT | 0.967
13 | AATCTCACT | 1.04
14 | GGGGTAGGAA | 0.969
15 | CCTATGATGA | 1.07
16 | ACGAAGACGT | 0.976
17 | TACCTTTAGG | 1
18 | AGAACGCCTG | 1.03
19 | TGTGGTCAT | 0.979
20 | AAGTGTGGTT | 0.995
21 | AGATATTTAC | 0.975
22 | AGACTCTAGA | 1.03
23 | TGAGATTGGT | 1
24 | CTATTTGCAC | 1.02
25 | GCGGCACATT | 1.02

Row | Sequence | switch fluorescence ratio
26 | TCCAGAGTCA | 1.08
27 | GCAAGGTTAC | 1.33
28 | GAGGTGGAGT | 1.02
29 | TAGACGAATC | 0.981
30 | CTAGTATGGC | 0.914
31 | CCTAGGGTGA | 1.08
32 | TCGTGATCGC | 1.01
33 | GTTAGGATTC | 1
34 | TTAGGCACAG | 0.995
35 | TAAGATCGTC | 1.03
36 | ACCGTGAGTG | 1.06
37 | CGTGTTCGTC | 1.07
38 | ACAAATACGA | 1.14
39 | TTTAGACT | 0.952
40 | AGGTGTTTCT | 1.05
41 | CTATTTGCAG | 1.08
42 | CTCGCGAGAC | 1.6
43 | CTACATTGTT | 1.01
44 | ACCTGGTGCC | 1.63
45 | TAGAAATACG | 1.15
46 | ATCCAATCCT | 1.09
47 | AATTTTCCGT | 1.02
48 | ATGTATCCGC | 1.25
49 | TCTTATTTCT | 1
50 | GGCGCGGATA | 1.05

Row | Sequence | switch fluorescence ratio
51 | CCTTAAGGGC | 1.02
52 | ATCATAGGGA | 0.942
53 | TTCTACTGGT | 0.96
54 | TTTATGTGGT | 1.01
55 | TAATATATAA | 0.987
56 | TTTTTCACAA | 1.03
57 | AGGAGGGCGG | 0.999
58 | GTGTCCTAGA | 1.01
59 | GGGGAAGTTA | 1.05
60 | TCAAGGATCT | 0.996
61 | GAAAGAGTGT | 1.02
62 | ATATTATT | 0.976
63 | ATCCCGGCCT | 1.04
64 | TTTAGCCGG | 1
65 | AGTCGAGCGG | 0.992
66 | GCACCAACGG | 1.11
67 | TTGATCAAGA | 1.02
68 | GGCCCCGGAG | 1.12
69 | TGAGTGAGAT | 0.981
70 | GAACCCGTAC | 1.46
71 | CCAAGCAGGT | 1.46
72 | ACTCCCTGGA | 1.36
73 | TTTAAAGGGC | 0.967
74 | TACTCCACGA | 2.33
75 | TCCTTTCCCA | 1.04

Row | Sequence | switch fluorescence ratio
76 | TGCAACGTAA | 1.26
77 | CAAAGAGATA | 1.02
78 | TGCTGGTTCG | 1.01
79 | CAGTACTGCC | 1.08
80 | CTCCAATAAG | 1.31
81 | TACTGGTCTG | 1.02
82 | AACGCATTAA | 2.42
83 | GTTACGCCTT | 1.11
84 | AATGAGCGCC | 1
85 | GGAAGGCTTT | 1.05
86 | TATGGGTTCC | 1.04
87 | TTATTTTCCC | 1.03
88 | GGTAAGGAGT | 1
89 | CTAGGTTAC | 1.47
90 | CGGAGATGCT | 1.04
91 | TATGCGGGAT | 1
92 | TTACACAGG | 1.19
93 | GCATCTGTGG | 1.02
94 | TATTCGTGAG | 1.01
95 | TCGGTCTTCA | 0.991
96 | AGCCCGGTGA | 1.48
97 | AGATGTCAGG | 0.999
98 | GATTAAAGTA | 1.01
99 | TCCTCAAAAG | 0.987
100 | ACGTGCTATA | 1.14

Row | Sequence | switch fluorescence ratio
101 | TGTGGAGGGG | 0.932
102 | GATGTTCGTA | 1.02
103 | CTGTCCGCTG | 1.81
104 | TGAGGTCTCC | 1.06
105 | TTGCTAAGTG | 0.998
106 | TTTCTAAAC | 0.992
107 | CACGAAGCCA | 1.32
108 | ATGGAACCCC | 1.13
109 | TGGGTGAGGT | 1.03
110 | GACTCCATTC | 1.28
111 | CGGGGGAAT | 0.996
112 | CAACAGGAG | 1.06
113 | TGGCTTAATG | 1.01
114 | TATAGTTTAG | 0.979
115 | CGTATGGCC | 1.11
116 | ACGTAGTATC | 1
117 | GAATTCCTT | 1.01
118 | GACCGACGC | 2.84
119 | TTTAGCGGCT | 1.03
120 | CTCTATTTAA | 0.952
121 | ATTGAGGTCC | 0.993
122 | TGTGGATGAT | 0.985
123 | GGGCTGGGCA | 1.05
124 | TTCGGCATGG | 1.04
125 | AGCTTGGCTC | 1.08

Row | Sequence | switch fluorescence ratio
126 | TAACCGCACA | 2.54
127 | CTCATATATT | 1.01
128 | TATAGAAAA | 0.966
129 | AGGATAGCCA | 1.02
130 | CACTGAATGG | 0.982
131 | AGTTCAAGGG | 1.06
132 | CCTTTTGCCG | 1.13
133 | GTGCCTGGGC | 1.02
134 | TTGGGCCTAT | 1.02
135 | TAAGTATCTA | 1.02
136 | GAAAGATGGT | 0.999
137 | AAGATAAGGA | 0.972
138 | GCTGTCGACG | 0.976
139 | TGCATCCTGA | 0.988
140 | TTTCTCGTT | 0.99
141 | GGTATTGGGT | 0.993
142 | CAAGAATTTC | 0.999
143 | TGACTCAGTA | 1.03
144 | GCGAATGAG | 0.95
145 | GGATGGTAGG | 0.986
146 | GCTTAGCCAC | 1.05
147 | GCCGTTGCAA | 1.14
148 | CTCGTCTTGA | 0.988
149 | CGCGGTACTG | 3.7
150 | GTCAAACACT | 1.07

Row | Sequence | switch fluorescence ratio
151 | GATGATTGTG | 0.986
152 | CCGAGTTCAC | 1.08
153 | CTTTTTCCTT | 1.03
154 | ATGAGGCGTT | 1.04
155 | ATTAACTTCT | 1.01
156 | GGTTATCTGT | 0.993
157 | TGTCAATGTT | 1
158 | GAATACGTGG | 0.952
159 | ATATCCCGCT | 1.08
160 | ACGAGGAGGA | 1.02
161 | GGACTATCAC | 1.1
162 | AGATACATCG | 1.05
163 | CCGATTAGTC | 1.16
164 | GTCGCTTTGG | 0.959
165 | AGCTAAGTGC | 1
166 | TATATCCCTC | 0.985
167 | AAGTAAATCA | 0.979
168 | CTTGGCTTTG | 0.997
169 | TCAGATTAGA | 1
170 | AAGAGGTATT | 0.98
171 | GATAGCTCCT | 1.01
172 | TCCTCACTGG | 1.12
173 | ATATTAGGCC | 1.03
174 | GACTGCGAAC | 2.54
175 | CCATTGACGA | 1.06

Row | Sequence | switch fluorescence ratio
176 | TGAAGTGTGT | 0.971
177 | TTTAGAAGCT | 0.98
178 | TCGTCTTGCT | 1.02
179 | GAAATTTGTC | 1.06
180 | CAATTCTCGT | 0.969
181 | CGGCTCTTGA | 0.961
182 | TTTGGCGTCC | 1.01
183 | GACGAATTAA | 1.13
184 | GCATTTATTT | 1.01
185 | CAGAATGTGT | 1.04
186 | TCGGTATTAG | 1
187 | TGTAAAACGC | 1.03
188 | AACGTCAGAA | 1.05
189 | ATCACGAAGG | 1.04
190 | CTGAATGCGG | 0.964
191 | CGGGTAGAGG | 1
192 | TGAAATGTAG | 0.962
193 | AGCATTTAAC | 1.38
194 | AAGGTGGCGA | 0.947
195 | TTTACATTTA | 1.01
196 | CCTGACATTT | 1.21
197 | AGCCGTGGTC | 0.999
198 | GGTGAAGGCT | 1.12
199 | TTGTGCGGGG | 0.981
200 | AGTCGTAGAA | 1.03
